Assay results reported in PubChem BioAssay AID488969 (Vanderbilt High Throughput Screening Facility, 2010).
Whole data set: some 110,000 compounds, median “z-score” near -0.1, cut for the highest 2% near 2. The list shows a part of the results.

target: Metabotropic glutamate receptor 8 (Rattus norvegicus) (UniProt P70579); test: rat mGluR8 modulators via GIRK flux, primary screen, cell-based, thallium flux, HTS (AID 488969); details: HEK293 rat mGluR8, GIRK (G protein-gated inwardly rectifying potassium channel) thallium flux, FluoZin2; at 10 µM; stronger effect = higher value; submaximal glutamate (EC20) added with thallium
Chain of UniProt P70579 (P70579 whole entry, looked up): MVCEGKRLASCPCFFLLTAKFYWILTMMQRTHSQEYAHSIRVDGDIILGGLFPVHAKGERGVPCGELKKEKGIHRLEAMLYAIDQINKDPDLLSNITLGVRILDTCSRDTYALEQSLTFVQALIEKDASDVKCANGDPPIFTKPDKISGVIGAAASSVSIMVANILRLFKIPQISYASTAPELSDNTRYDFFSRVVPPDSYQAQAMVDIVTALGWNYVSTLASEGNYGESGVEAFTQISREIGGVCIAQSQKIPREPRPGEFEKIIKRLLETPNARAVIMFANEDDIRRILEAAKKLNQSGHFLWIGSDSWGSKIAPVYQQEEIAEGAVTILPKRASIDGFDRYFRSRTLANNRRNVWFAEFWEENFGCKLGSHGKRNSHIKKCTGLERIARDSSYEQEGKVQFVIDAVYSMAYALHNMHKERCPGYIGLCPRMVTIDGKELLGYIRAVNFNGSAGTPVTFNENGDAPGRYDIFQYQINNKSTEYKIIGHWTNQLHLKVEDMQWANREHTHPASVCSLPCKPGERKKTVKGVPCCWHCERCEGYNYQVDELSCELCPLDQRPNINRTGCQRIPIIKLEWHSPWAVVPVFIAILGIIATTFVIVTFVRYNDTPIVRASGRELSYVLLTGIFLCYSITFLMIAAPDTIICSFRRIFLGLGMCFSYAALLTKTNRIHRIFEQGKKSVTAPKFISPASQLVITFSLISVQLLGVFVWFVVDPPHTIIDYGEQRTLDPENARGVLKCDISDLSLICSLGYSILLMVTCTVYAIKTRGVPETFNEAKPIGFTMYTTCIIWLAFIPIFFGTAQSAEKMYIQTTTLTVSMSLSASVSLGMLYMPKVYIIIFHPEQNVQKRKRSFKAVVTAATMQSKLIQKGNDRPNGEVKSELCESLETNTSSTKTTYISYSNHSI

| SMILES | z-score |
| --- | --- |
| c1ccc2c(CSCCc3ccncc3)cccc2c1 | -0.109 |
| COc1ccc(/C=C2/SC(=O)N(CCNC(=O)C3COc4ccccc4O3)C2=O)cc1 (configuration not stated) | 0.234 |
| COC(=O)c1ccn(-c2nc(-c3ccco3)cc(C(F)(F)F)n2)n1 | -0.739 |
| COc1ccc(C(=O)Nc2ccc(C)cc2C(=O)c2ccccc2)cc1 | -0.758 |
| O=C(Nc1ncnc2sc3c(c12)CCCCC3)c1ccco1 | -0.457 |
| CC1CN(c2ccc(S(=O)(=O)N3CCOCC3)cn2)CC(C)O1 (configuration not stated) | 0.501 |
| CC1CCCN(C(=O)c2cc(F)c(F)cc2Cl)C1 (configuration not stated) | -0.0397 |
| OCC1CCCN(C(=S)NCCc2ccccc2)C1 (configuration not stated) | 0.429 |
| COc1ccccc1OCCCOc1ccc([N+](=O)[O-])cc1Cl | -0.192 |
| COc1cnn(-c2ccc(Br)cc2)c(=O)c1SCc1ccccc1 | 0.0428 |
| COC(=O)c1cc(C#N)c(Oc2cccc(C)c2C)nc1C | -0.232 |
| COC(C(=O)NCc1ccccc1C)c1ccccc1 (configuration not stated) | -0.267 |
| CC(C)N1C(=O)S/C(=C/c2ccc(Sc3nc4ccccc4[nH]3)o2)C1=O | -0.0626 |
| CCOC(=O)c1nn(-c2ccccc2)c(C)c1C(C)=O | -0.0737 |
| CCOC(=O)C1=C(C)NC(=O)NC1c1ccc(Cl)cc1Cl (configuration not stated) | 0.0696 |
| CC(=O)c1cc(F)c(N2CCCCCC2)cc1C | 0.0588 |
| Cc1ccc(NC(=O)c2sc3nc4c(c(-c5ccco5)c3c2N)CCC4)cc1 | -0.382 |
| COc1cc(/C=N/NC(=O)CCN2CCN(C(c3ccccc3)c3ccccc3)CC2)ccc1O | -0.552 |
| Cc1ccc(S(=O)(=O)NC(=NCC(=O)O)c2ccc(F)cc2)cc1 | 0.317 |
| Cc1n[nH]c(C)c1S(=O)(=O)N(CC(=O)N1CCc2ccccc21)c1ccc(C(C)C)cc1 | 0.497 |
| Cn1c(=O)c(Oc2cc(Cl)cc(Cl)c2)nc2ccccc21 | 0.0246 |
| CCN(CCCNC(=O)CCc1nc(-c2ccc(OC)cc2)no1)c1cccc(C)c1 | -0.324 |
| CCOC(=O)c1c(C)[nH]c(C2=NNC(=Nc3ccccc3OC)SC2)c1C | -0.32 |

| SMILES | z-score |
| --- | --- |
| CCOC(=O)c1ccc(COC(=O)CNC(=O)CNC(=O)c2ccc(OC)cc2)o1 | 0.127 |
| CCCC1C2C(=O)N(c3ccccc3OC)C(=O)C2ON1c1ccccc1 (configuration not stated) | -0.179 |
| CS(=O)(=O)N1Cc2ccccc2CC1C(=O)OCC(=O)Nc1ccc2ccccc2c1 (configuration not stated) | 0.0644 |
| O=C(Nc1ccccc1F)c1ccc(-n2cncn2)nc1 | -0.0684 |
| CC(C)Cc1nc(N2CCCCC2)c(C#N)c2c1CCC2 | 0.76 |
| CCOC(=O)c1cc2c(C(F)(F)F)cc(-c3ccccc3)nc2o1 | -0.307 |
| O=S(=O)(Cc1ccccc1)c1ccccc1-c1nnc(-c2ccccc2)o1 | 0.176 |
| Cn1c(CC(=O)Nc2ccc(F)cc2)c(Sc2ccccc2)c2ccccc21 | -0.239 |
| Cc1noc(C)c1COc1ccc(C(=O)OCC(=O)N2CC3(C)CC2CC(C)(C)C3)cc1 (configuration not stated) | -0.932 |
| CCOCCCNC(=O)C(NC(=O)c1ccc(=O)[nH]c1)c1ccc(C)cc1 (configuration not stated) | -0.145 |
| O=C(c1cc2nc(-c3ccc(F)cc3)cc(C(F)(F)F)n2n1)N1CCCC1 | -0.141 |
| Cc1cccc(NS(=O)(=O)c2cccs2)c1 | 0.182 |
| Cc1ccccc1OCc1nc(-c2ccc(NC(=O)c3ccc4c(c3)OCO4)cc2)no1 | -0.106 |
| CCC(CC)COC(=O)C(C#N)c1nc2ccccc2nc1N1CCN(CC)CC1 (configuration not stated) | 2.72 |
| CCc1nnc(NC(=O)CSc2nc(-c3ccccc3)c(-c3ccccc3)o2)s1 | -0.14 |
| Cc1ccc(S(=O)(=O)N(C)c2ccccc2C(=O)NC2CCCC2)cc1 | 0.54 |
| COCCCNCCCCOc1ccc(C)cc1[N+](=O)[O-] | -0.0288 |
| CC(C)c1nnc(N2C(=O)c3oc4ccccc4c(=O)c3C2c2ccco2)s1 (configuration not stated) | -0.437 |
| C=CC[N+](C)(C)C/C(Cl)=C(\Cl)c1ccccc1 | 1.08 |
| N#Cc1cnc(SCCc2ccccc2)nc1N | -0.189 |
| Cc1cccc(N(C(=O)Cn2nnc3ccccc32)C(C(=O)NC(C)(C)C)c2ccsc2)c1 (configuration not stated) | -0.144 |
| Cc1cccc(C)c1NC(=O)CS(=O)CC(=O)Nc1ccc(F)cc1F (configuration not stated) | -0.034 |
| CCCN1C2=C(C(=O)CC(C)(C)C2)C(c2ccc(F)cc2)C2=C1c1ccccc1C2=O (configuration not stated) | -0.114 |

| SMILES | z-score |
| --- | --- |
| CN(C)c1ccc(/C=C(\C#N)C(=O)NCc2ccco2)cc1 | -0.253 |
| CC(=O)NC1C(=O)SC1(C)C (configuration not stated) | 1.19 |
| Cc1ccc(NC(=S)NC(=O)c2c(-c3ccccc3Cl)noc2C)cc1 | 0.74 |
| COc1ccc(C(=O)NCc2nnc(SCC(=O)N3CCC(C)CC3)o2)cc1OC | -0.254 |
| CC1CC1C(=O)OCC(=O)NC(=O)NCc1ccco1 (configuration not stated) | -0.131 |
| O=C1CC(Nc2ccccc2)C(=O)N1CCc1ccccc1 (configuration not stated) | -0.213 |
| CCOC(=O)C1CCN(C(=O)C2(NC(=O)Nc3ccccc3Cl)CCCCC2)CC1 | -0.0239 |
| O=C(Nc1ccon1)c1ccccc1Cl | -0.0993 |
| COC(=O)c1cc(Br)c(=O)n(CCN2CCCC2)c1 | 0.122 |
| Cc1cc(C)c(C(=O)COC(=O)c2cc([N+](=O)[O-])ccc2NCCO)cc1C | -0.401 |
| CCOc1cccc(CNn2cnnc2)c1OCc1ccccc1Cl | -0.0444 |
| CCOC(=O)CNS(=O)(=O)c1ccc(C(=O)O)cc1 | 0.207 |
| O=Cc1ccccc1Oc1ccccc1 | -0.00941 |
| O=[N+]([O-])c1cc(C(F)(F)F)cc([N+](=O)[O-])c1NCc1cccnc1 | -0.229 |
| COc1cccc(OC)c1OCC(O)CN1CCN(c2ccccc2)CC1 (configuration not stated) | 0.487 |
| Cc1nc(NC(=O)c2ccc(F)cc2)nc2cc3c(cc12)OCO3 | -0.174 |
| O=C(CN1C(=O)c2cccc3cccc1c23)Nc1cccnc1 | -0.122 |
| CCc1ccc2nc3nc(C)cc(C)c3c(N)c2c1 | 0.359 |
| Cc1ccc(S(=O)(=O)c2c(N)n(-c3ccccc3)c3nc4ccccc4nc23)cc1 | -0.0323 |
| CCn1c(CCNC(=O)c2ccc(F)cc2)nc2ccccc21 | 0.16 |
| CCC(C)(C)n1nnnc1C(C(C)C)N(CCN1CCOCC1)Cc1cc2cccc(C)c2[nH]c1=O (configuration not stated) | -0.0184 |
| CCCc1nc(N)c(C#N)c(-c2ccco2)c1CC | 0.813 |
| CCN(CC)C(=O)c1n[nH]c(=O)c2ccccc12 | 0.0104 |

| SMILES | z-score |
| --- | --- |
| CC(C)(C)n1nnnc1CN1CCC(NC(=O)NC2CCCCC2)CC1 | -0.255 |
| CCc1ccc(NC(=O)Cn2c(=O)oc3cc(S(=O)(=O)N4CCOCC4)ccc32)cc1 | 0.578 |
| Cc1ccc(C(=O)Nc2nc(=O)n(C)s2)cc1 | -0.309 |
| O=C(NNC(=O)c1cnccn1)c1cccc([N+](=O)[O-])c1 | -0.417 |
| COCCCNCCCCOc1ccc(Br)cc1C | 0.433 |
| Cc1ccc(Nc2nc(N)nc(CSCCO)n2)cc1 | 0.139 |
| Cc1ccc(S(=O)(=O)/N=C(\CN2CCOCC2)N2CCOCC2)cc1 | -0.0131 |
| CCCCC(=O)NCCNC(=O)c1cc(OCC(F)(F)F)ccc1OCC(F)(F)F | 0.45 |
| COc1ccc(CNC(=O)c2csc(Cc3ccccc3)n2)cc1 | -0.391 |
| O=C(CCN1C(=O)c2ccccc2C1=O)C1=NN[C@@H]2C(=O)N(c3ccc(F)cc3)C(=O)[C@H]12 | 0.122 |
| N#C/C(=C1\C(=O)Nc2c(Cl)cc(Cl)cc21)c1nnc2n1CCCCC2 | -0.636 |
| Cc1ccc(S(=O)(=O)/C(C#N)=C/c2c(N3CCN(C)CC3)nc3c(C)cccn3c2=O)cc1 | -0.809 |
| Cn1c(Cn2nnc3ccccc32)nnc1SCC(=O)c1ccccc1F | -1.15 |
| CCN(Cc1ccccc1)c1ccc(/C=N/NC(=O)c2cccc(S(=O)(=O)N3CCOCC3)c2)cc1 | -0.523 |
| CCOC(=O)c1ccccc1N1C(=O)C2Sc3[nH]c(=O)sc3C(/C=C/c3ccccc3)C2C1=O (configuration not stated) | -0.495 |
| CCNc1nc(OC)nc(Oc2ccc(C(=O)OC)cc2)n1 | -0.368 |
| O=C(c1ccco1)N1CCN(C(c2cccs2)c2nnnn2C2CCCC2)CC1 (configuration not stated) | 0.254 |
| Cn1c(=O)c2c3c(sc2n2cnnc12)CCC3 | -0.152 |
| CC(C(=O)Nc1ccccc1F)N1C(=O)c2ccccc2C1=O (configuration not stated) | 1.07 |
| COc1ccc(-n2c(C)csc2=S)cc1 | 0.000578 |
| NC(=O)COc1cccc2cccnc12 | 0.764 |
| COC(=O)N/N=C/c1ccc([N+](=O)[O-])o1 | -0.0263 |
| Nc1nonc1C(=O)NCCNCc1ccccc1 | 0.0798 |

| SMILES | z-score |
| --- | --- |
| Cc1ccc2nc(-c3ccc4c(c3)OCCO4)cc(C(=O)O)c2c1 | -1.44 |
| CC(C)CC(NC(=O)c1ccc(Cl)cc1)C(=O)O (configuration not stated) | -0.0425 |
| COc1ccc(Cn2nnnc2CN2CCc3ccccc32)cc1 | -0.875 |
| S=c1[nH]nc(COc2ccccc2)n1/N=C/c1cccnc1 | -0.289 |
| CCOC(=O)Cn1cnc2c(nnn2Cc2ccc(Cl)cc2)c1=O | -0.202 |
| CN(C)c1nc(N(C)C)nc(N2CCCCC2)n1 | -0.209 |
| O=[N+]([O-])c1ccc(/C=N/Nc2cc(Cl)nc(-c3ccccc3)n2)cc1 | 0.262 |
| CCOC(=O)CCn1c(CC(=O)OCC)nc2ccccc21 | 0.435 |
| O=C(CSc1nnnn1C1CCCCC1)Nc1nc2c(s1)CCCC2 | -0.656 |
| COc1cccc(C2CC(c3cccs3)=NN2C(=O)CSC2=NN3CCCC(=O)N=C3S2)c1OC (configuration not stated) | 1.55 |
| CCn1c(SC)nnc1-c1ccc(S(=O)(=O)N2CCCCC2)cc1 | 0.484 |
| CCSc1nnc(NC(=O)c2cc(-c3ccc(C)c(C)c3O)n[nH]2)s1 | -0.0151 |
| CCCc1nc(SCc2cccnc2)c2c(=O)n(C)c(=O)n(C)c2n1 | -0.67 |
| COc1cccc(C2CC3(CC(C)(C)NC(=S)N3)Oc3cc(O)ccc32)c1 (configuration not stated) | 0.0131 |
| Cc1ccc(Cn2ccc(NC(=O)c3cc(-c4ccc(Cl)cc4)on3)n2)cc1 | -0.187 |
| CC(C(=O)NC(=O)NCc1ccccc1)N1C(=O)c2ccccc2C1=O (configuration not stated) | -0.0608 |
| CCOC(=O)c1sc2nc(C)c3c(c2c1N)CC(C)(C)OC3 | 0.384 |
| Cc1ccc(Cn2c(SCC(C)C)nc3c2c(=O)n(C)c(=O)n3C)cc1 | -0.493 |
| CCCCNC(=O)C1CC(=O)N(C2CCCC2)C1 (configuration not stated) | -0.189 |
| CC(C)OCCCNC(=O)C1CC(=O)N(C2CCCCCCC2)C1 (configuration not stated) | 0.293 |
